In PubChem BioAssay AID1460 (National Center for Advancing Translational Sciences (NCATS), 2008):
“And” between values parts separate entries of the source, which are not always exact repeats. Equal values may be shown once. Among all 270,000 compounds or so, about 5,800 (2.1%) were called active. Inconclusive results, whose numbers are uncertain, are shown with a selection of clear calls. The call rests on the fitted dose curve; in most records, active means well fitted inhibition curve with a large enough effect; inconclusive means small, poorly fitted or top-dose-only effect; inactive means flat fitted curve, though single readings scatter. Potencies beside an inconclusive call are fits to weak or partial responses and may not hold up.

biological target: Microtubule-associated protein tau (Homo sapiens) (UniProt P10636); assay: qHTS for Inhibitors of Tau Fibril Formation, Thioflavin T Binding; conditions: recombinant tau K18 P301L (four-repeat tau fragment), heparin-induced fibrillization, ThT fluorescence; series mostly up to 57.4 µM; activity, negative = inhibition: at the top concentration; further: nearly all actives have a fitted effect of over 55% in size
Chain of UniProt P10636 (P10636 whole entry, looked up, the tested form may be a part): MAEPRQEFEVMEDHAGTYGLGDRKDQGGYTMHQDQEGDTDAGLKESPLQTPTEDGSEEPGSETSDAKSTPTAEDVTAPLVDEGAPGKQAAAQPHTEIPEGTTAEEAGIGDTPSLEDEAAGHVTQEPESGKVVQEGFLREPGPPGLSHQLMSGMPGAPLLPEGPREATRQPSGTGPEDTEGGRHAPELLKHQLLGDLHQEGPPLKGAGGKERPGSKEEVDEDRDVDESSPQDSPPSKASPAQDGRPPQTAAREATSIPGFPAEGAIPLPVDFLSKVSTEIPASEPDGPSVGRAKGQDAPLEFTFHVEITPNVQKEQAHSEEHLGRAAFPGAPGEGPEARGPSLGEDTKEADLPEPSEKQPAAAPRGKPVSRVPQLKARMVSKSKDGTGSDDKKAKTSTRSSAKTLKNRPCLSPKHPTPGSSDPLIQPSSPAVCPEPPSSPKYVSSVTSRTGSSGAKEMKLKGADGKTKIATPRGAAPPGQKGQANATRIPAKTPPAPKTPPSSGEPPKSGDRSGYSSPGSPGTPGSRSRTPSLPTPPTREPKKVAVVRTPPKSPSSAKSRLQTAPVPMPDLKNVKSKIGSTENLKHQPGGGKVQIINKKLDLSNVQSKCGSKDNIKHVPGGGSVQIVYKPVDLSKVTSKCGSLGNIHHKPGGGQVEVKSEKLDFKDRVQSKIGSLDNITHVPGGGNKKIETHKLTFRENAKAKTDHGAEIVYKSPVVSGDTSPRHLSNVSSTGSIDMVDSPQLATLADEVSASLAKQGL
How it was run: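 In this qHTS, human K18 P301L tau is incubated with compound and heparin for 6 hr at 37 C, and Thioflavin T fluorescence then reports fibril load.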
On the % scale 0 is the no-effect control and ±100 the full control effect; potency means the concentration at half of the fitted maximal effect; tags describe the fitted curve by direction and shape.

Compound | Potency | activity, negative = inhibition
Cc1ccsc1C=C1C(=O)c2ccccc2C1=O | active: 14.1 µM | 
CCc1nc(SCc2ccc(F)cc2)n[nH]1 |  | inactive: 4.9%
O=C(Nc1nc2ccccc2[nH]1)C1CC(=O)N(c2ccc3c(c2)OCCO3)C1 (stereo not given) | inconclusive: 15.8 µM [inhibitor, partial curve] | 
Cc1cccc(CSc2ncc(Cl)c(C(=O)Nc3nnc(C)s3)n2)c1 |  | inactive: -7.83%
O=C(O)c1ccccc1Nc1cccc(OCc2ccc3ccccc3n2)c1 | active: 14.1 µM | 
CN(c1ccccc1)S(=O)(=O)c1ccc(Cl)c(C(=O)Nc2ccc(-c3nc4ccccc4[nH]3)cc2)c1 | inconclusive: 20 µM [activator, partial curve, poor fit] | 
Cc1ccc(CNC(=O)CN2C(=O)C3CCCCN3c3ccc(C(=O)N(C)C)cc32)cc1 (stereo not given) |  | inactive: 17%
Cc1ccc(C(c2ccc(C)o2)c2cccc([N+](=O)[O-])c2O)o1 | inconclusive: 28.2 µM [inhibitor, partial curve] | 
Cc1ccc(CNC(=O)c2cc3c(=O)n4cccc(C)c4nc3s2)cc1 |  | inactive: 0.402%
Cc1cc(C)nc(Nc2ccc(N3CCOCC3)cc2)n1 | inconclusive: 15.8 µM [inhibitor, partial curve] | 
Cc1ccc2oc(C(=O)NCC(c3ccc(Cl)cc3)N3CCOCC3)c(C)c2c1 (stereo not given) | inconclusive: 35.5 µM [inhibitor, single point] | 
COC(=O)c1ccc(-c2nc3cc(N)ccc3o2)cc1 | active: 5.01 µM | 
CN(C)C(=S)NC(=O)C(c1ccccc1)c1ccccc1 |  | inactive: -4.48%
CCOc1cc(CNc2ccc3c(c2)CCC3)ccc1OC | inconclusive: 22.4 µM [inhibitor, partial curve] | 
COc1ccc(N2Cc3ccccc3C2)cc1Cl | inconclusive: 8.91 µM [inhibitor, partial curve] | 
COc1ccc2cc1Oc1ccc(cc1)C[C@H]1c3c(cc4c(c3Oc3cc5c(cc3OC)CCN(C)[C@@H]5C2)OCO4)CCN1C | inactive and inconclusive: 89.1 nM [inhibitor, full curve, poor fit] | 
N#Cc1nc(-c2ccco2)oc1N1CCc2ccccc2C1 | inconclusive: 28.2 µM [inhibitor, partial curve, poor fit] | 
CCOC(=O)c1c2c([nH]c(=S)c1C#N)CCCC2 | inconclusive: 22.4 µM [inhibitor, partial curve] | 
CS(=O)(=O)N1CCN(c2ccc([N+](=O)[O-])c(N3CCOCC3)c2)CC1 | inconclusive: 22.4 µM [inhibitor, partial curve, poor fit] | 
COc1ccc(Nc2nnc(SCC3CCCCO3)s2)cc1 (stereo not given) | inconclusive: 39.8 µM [inhibitor, single point] | 
CCc1ccccc1NC(=O)c1nc2nc(C)cc(C(F)F)n2n1 |  | inactive: -4.62%
CN=c1scc(-c2cc(OC)ccc2OC)n1/N=C/c1c(C)[nH]c2ccccc12 | active: 14.1 µM | 
CCN(CC)S(=O)(=O)c1ccc2c(c1)c(=O)c(C(=O)N1CCN(c3ccc(OC)cc3)CC1)cn2C |  | inactive: -3.46%
COc1ccc(N2CC(C(=O)N/N=C/c3ccc([N+](=O)[O-])cc3)CC2=O)cc1 (stereo not given) | inconclusive: 15.8 µM [inhibitor, partial curve] | 

Compound | Potency | activity, negative = inhibition
CO/N=C/CC(=O)c1ccc(-c2ccccc2)cc1 | inconclusive: 12.6 µM [inhibitor, partial curve] | 
Cc1ccc(C(=O)N2CCN(c3ccccc3)CC2)cc1NC(=O)c1nsc2ccccc12 |  | inactive: -12.5%
N#Cc1c(C(F)(F)F)cc(-c2cccs2)nc1SCC(=O)Nc1cccc(Br)c1 | inconclusive: 25.1 µM [inhibitor, partial curve] | 
CCOc1ccc(-c2cc(NC(=O)Nc3ccccc3Cl)c(C(=O)OC)s2)cc1 | inconclusive: 20 µM [inhibitor, partial curve] | 
Nc1cc(N)nc(SCc2cc([N+](=O)[O-])cc3c2OCOC3)n1 | inconclusive: 5.01 µM [inhibitor, full curve, poor fit] | 
Cc1cccc(NC(=O)/C(=C\c2ccc([N+](=O)[O-])o2)NC(=O)c2ccc(Cl)cc2)c1 | inconclusive: 31.6 µM [inhibitor, single point] | 
COCCn1c(-c2ccc(-c3ccc([N+](=O)[O-])cc3Br)o2)nc2c1c(=O)[nH]c(=O)n2CC(C)C | inconclusive: 10 µM [inhibitor, partial curve] | 
O=C(CCc1ccccc1)NC(NC(=S)Nc1ccc(Br)cc1)C(Cl)(Cl)Cl (stereo not given) |  | inactive: 5.17%
Cc1ccccc1CSc1nc2c([nH]c3ccccc32)c(=O)n1-c1ccccc1 |  | inactive: 4.96%
Cc1ccc(/C=C/c2onc(C)c2S(=O)(=O)N2CCC(C(=O)Nc3cccc(C#N)c3)CC2)cc1 | inconclusive: 17.8 µM [activator, partial curve] | 
COC(=O)c1c(NC(=O)CCCC(=O)O)sc2c1CCCCC2 | inconclusive: 39.8 µM [inhibitor, single point] | 
CCCC[n+]1ccn(C2=C([O-])c3ccccc3C(=O)/C2=N\S(=O)(=O)c2ccccc2)c1 | inconclusive: 17.8 µM [inhibitor, partial curve] | 
CCOc1ccc(CNC(=O)Cn2nc(N3CCN(c4ccccc4)CC3)ccc2=O)cc1 | inconclusive: 17.8 µM [inhibitor, single point] | 
Cc1c(Cl)c(=O)n2c(=O)c(Cl)c(C)n12 | inconclusive: 39.8 µM [activator, partial curve] | 
CCOC(=O)Cn1nc(C)c2ccccc2c1=O |  | inactive: -0.0891%
CCOC(=O)c1c(/N=C/N(C)C)sc(/C=N/Nc2ccccc2)c1-c1ccccc1Cl | inconclusive: 14.1 µM [inhibitor, partial curve] | 
O=C(CCCCCn1c(=O)[nH]c2ccsc2c1=O)NCc1ccccc1 |  | inactive: -3.33%
CCOC(=O)c1c(C=O)c(C)n(Cc2ccccc2Cl)c1C | inconclusive: 39.8 µM [inhibitor, single point] | 
O=c1c2c(nc3cc(-c4ccc(Cl)cc4)[nH]n13)CCS2 | inconclusive: 12.6 µM [inhibitor, partial curve] | 
COc1ccccc1CNC(=O)CSc1nc2nc(C)c(Cc3ccccc3C)c(C)n2n1 | inconclusive: 0.0224 µM [inhibitor, full curve, poor fit] | 
COC(=O)c1cc2occc2n1Cc1c(F)cccc1Cl | inconclusive: 31.6 µM [inhibitor, single point] | 
O=c1c2ccccc2c(=O)n(Cc2ccccc2)n1Cc1ccccc1 | inconclusive: 31.6 µM [inhibitor, single point] | 
COc1ccc(N2CCN(CC(O)COc3ccc4c(c3)CCC4)CC2)cc1 (stereo not given) | inconclusive: 14.1 µM [inhibitor, partial curve] | 
Cc1c(Cl)cccc1NC(=S)NCc1cccs1 |  | inactive: 1.63%

Compound | Potency | activity, negative = inhibition
COc1cc(SC)ccc1C(=O)N1CCn2c3c(c4cc(C)ccc42)CCCC31 (stereo not given) | inconclusive: 39.8 µM [inhibitor, single point] | 
CC(=O)C1C(=O)c2c(cccc2[N+](=O)[O-])C1=Nc1ccccc1C (stereo not given) | inconclusive: 20 µM [inhibitor, partial curve, poor fit] | 
CCC(C)NC(=O)c1ccc(Cn2c(=O)c3cccn3c3cccnc32)cc1 (stereo not given) |  | inactive: 4.55%
CCCC(=O)Nc1ccc(C(=O)NCCCn2ccnc2)cc1 |  | inactive: -11.2%
COc1ccc(Nc2nnc(-c3cc4cc(Cl)ccc4oc3=O)s2)cc1 | inconclusive: 0.708 µM [inhibitor, full curve] | 
COc1ccc(CC(=O)Nc2nc(C)cs2)cc1 |  | inactive: -10.9%
Cc1nc(Cl)sc1C(=O)NC(C)c1ccc(Cl)cc1 (stereo not given) |  | inactive: -1.18%
CC(=O)c1ccc(NC(=S)N2c3ccccc3CC2C)cc1 (stereo not given) | inconclusive: 12.6 µM [inhibitor, partial curve] | 
CCOc1ccc(C(=O)NC(=S)Nc2ccc(NC(=O)CC)cc2)cc1[N+](=O)[O-] | inconclusive: 0.891 µM [inhibitor, full curve] | 
N#CC1=C(N)n2c(s/c(=C\c3ccco3)c2=O)=C(C#N)C1c1ccco1 (stereo not given) | active: 20 µM | 
O=c1oc2ccccc2cc1-c1csc(Nc2nc3ccc(F)cc3s2)n1 | inconclusive: 2.82 µM [inhibitor, full curve] | 
CCOC(=O)c1c(C)oc2nc(C)nc(NCCCN3CCN(c4ccccc4OC)CC3)c12 |  | inactive: -17.2%
COC(=O)c1ccc(NC(=O)CC2C(=O)N(c3cccc(C)c3)C(=O)N2Cc2ccco2)cc1 (stereo not given) |  | inactive: 6.6%
COc1ccc(NC(=O)CN(C)CC(=O)Nc2ccccc2SC)cc1 |  | inactive: -12.2%
Nc1[nH][nH]c(=O)c1N=Nc1ccc2c(c1)OCO2 | active: 11.2 µM | 
N/C(=N\OC(=O)COc1cc(Cl)c(Cl)cc1Cl)c1ccccn1 | inconclusive: 7.08 µM [inhibitor, partial curve] | 
Cc1cc(=O)[nH]c(N/N=C/CCc2ccccc2)n1 | inconclusive: 31.6 µM [inhibitor, partial curve] | 
CCOC(=O)c1c(NC(=S)N2CCOCC2)sc2c1CCN(C(=O)OCC)C2 | inconclusive: 17.8 µM [inhibitor, single point] | 
CCCN=Cc1sc2ccc(OCC)cc2c1O | inconclusive: 17.8 µM [inhibitor, partial curve] | 
COc1cccc(C2/C(=C(\O)c3ccc4c(c3)OCO4)C(=O)C(=O)N2CCN(C)C)c1OC (stereo not given) |  | inactive: -10.3%
CCOc1nc(N=C(N)N)nc2c(C)cccc12 | inconclusive: 31.6 µM [inhibitor, single point] | 
Cc1cc(C)c(-c2csc(-c3cc4ccccc4oc3=O)n2)cc1C | inconclusive: 0.112 µM [inhibitor, full curve, poor fit] | 
